These results are taken from ChEMBL document CHEMBL4888484, “Replenishing the malaria drug discovery pipeline: Screening and hit evaluation of the MMV Hit Generation Library 1 (HGL1) against asexual blood stage Plasmodium falciparum ,using a nano luciferase reporter read-out” (2022).

Molecules are shown by their SMILES. Out of some 150,000 compounds screened, about 540 (0.36%) showed an effect of 50% or more. Some of the results follow.

For this assay, the system named is Plasmodium falciparum. Briefly: Primary screen in NF54 nanoGlo assay, in single point, at 2uM, 72h; a lower Z score goes with more inhibition. It is filed as functional, Erythrocyte. To be noted: timepoint 72 hour.
Consider `Cc1ccc(NC(=O)NC2(C)CCC2)cc1O[C@H]1CCOC1`, for which the % Inhibition (commonly the relative decrease from the control value, in per cent) is on record as -3% and the Z score came to 0.37.
For the compound `CCOC(=O)N1CC[C@H](NCc2csc(N)n2)C1`, the “% Inhibition” value is given as -7% and the Z score was found to be 0.81.
In the same order, the values of `CCO[C@H]1COC[C@@H]1Nc1nc(N)c2cnn(C)c2n1` are -9% and 1.8.
In the case of `CC(C)CNC(=O)COc1ccc2c(c1)[C@H](c1ccccc1)N(Cc1ccccc1)CC2`, the “% Inhibition” value was -5% and the Z score came out at 0.76.
For `Cc1ccc(C(=O)NCc2cn3c(n2)C(=O)N(Cc2ccccc2)CC3)cn1`, in that order: -13% and 1.77.
In the case of `COc1cc(N2CC[C@H]3[C@H](CCC(=O)N3CCCO)C2)ncn1`, the “% Inhibition” value is listed as -7% and the Z score is given as 1.39.
In the same order, the values of `CCN(Cc1nnc(C2CCC2)n1C)C(C)(C)CO` are -2% and 0.39.
`CCNC(=O)CCC[C@@H]1[C@H]2CCCN3CCC[C@@H](CN1C(=O)c1ccccc1)[C@@H]23`: the “% Inhibition” value is reported as 2% and the Z score was -0.32.
Regarding `CC1CCC2(CC1)N=C(c1ccc(Cl)c(Cl)c1)C(=O)N2` (centres undefined), the “% Inhibition” value was 36% and the Z score is -1.09.
For `Cc1[nH]nc(C(=O)N[C@H]2CC(C)(C)c3ccccc32)c1C`, in that order: 6% and -0.97.
In the case of `CCC[C@H]1CN(Cc2ccco2)C[C@@H]1NC(=O)C1(C#N)CCOCC1`, the “% Inhibition” value was -5% and the Z score is listed as 0.87.
For the compound `CCCN1C(=O)N[C@@H](Cc2ncnn2-c2ccc3nc(C)sc3c2)C1=O`, the “% Inhibition” value is listed as -5% and the Z score was determined as 0.61.
Regarding `CCOc1ccc(CN2C[C@H](CO)[C@H](CN3C[C@@H](C)O[C@@H](C)C3)C2)cc1`, the “% Inhibition” value is recorded as 11% and the Z score is reported as -1.35.
For `O=C(NC1CC1)N1CCC[C@H]1c1nc2ccccc2s1`, in that order: -5% and 0.73.
On to `CCC1CCC(N2CCC[C@H](C(N)=O)C2)CC1` (some centres undefined), for which the “% Inhibition” value is reported as -3% and the Z score worked out at 0.4.
With `COCCC(CNC(C)c1nccnc1C)NC(=O)OC(C)(C)C` (centres undefined), the “% Inhibition” value is reported as -12% and the Z score was 1.51.
In the same order, the values of `O=C(O)Cn1ccc(NC(=O)CCc2ccc(F)c3c2CCCC3)n1` are 7% and -1.1.
In the same order, the values of `C[C@H](NC(=O)N1CCC(C)(C#N)CC1)c1ccc(F)c2ccccc12` are -10% and 1.48.
As for `CCN(CC)CCN(CCC(F)(F)F)C(=O)c1ccnc(CO)c1`, the “% Inhibition” value is given as -5% and the Z score turned out to be 0.74.
As for `CC1(C)COc2c(C(=O)NC3CCCC3(C)CO)cccc21` (centres undefined), the “% Inhibition” value came to 15% and the Z score is given as -1.88.
Take `O=C1C[C@@H](c2ccccc2)N(C(=O)c2cc(F)ccc2O)CCN1`: the “% Inhibition” value stood at 36% and the Z score was -3.64.
For `CC(=O)Nc1cccc(-c2c(C)n(C)c(=O)n(C)c2=O)c1`, the “% Inhibition” value is -11% and the Z score is on record as 1.5.
Turning to `O=C(NCc1ccc2nonc2c1)N[C@H](c1cccnc1)C1CC1`, the “% Inhibition” value was 9% and the Z score was -1.38.
For the compound `O=C(N[C@H]1CC[C@H](O)CC1)N1CCC(CCc2ccc(F)cc2F)CC1`, the “% Inhibition” value turned out to be 7% and the Z score was -0.71.
On to `NC(=O)CCC1CCN(c2cc(-c3ccccc3F)nc3ccnn23)CC1`, for which the “% Inhibition” value is listed as -2% and the Z score is reported as 0.23.
`CCN1C[C@H](NS(=O)(=O)c2cnn(CC)c2)C(C)(C)C1`: the “% Inhibition” value is recorded as -9% and the Z score turned out to be 1.66.
As to `CCNc1cc(N2CCC(CCC(=O)NCc3cccc(OC)c3)CC2)ncn1`, the “% Inhibition” value stood at 26% and the Z score is given as -2.95.
For `O=C(CCc1c[nH]c2ccccc12)N[C@@H]1c2ccccc2C2(CCNCC2)[C@H]1O`, the “% Inhibition” value is on record as -3% and the Z score is given as 0.61.
For `O=S(=O)(CC[C@H]1CCCO1)N1CCc2c(F)ccc(F)c2C1`, in that order: -6% and 0.85.
In the same order, the values of `Cc1cc(C)cc(NC(=O)c2nc(-c3cn(Cc4ccc(F)cc4)nn3)no2)c1` are -2% and 0.47.
In the case of `O=C(Cc1csc(NC(=O)c2ccco2)n1)Nc1nnc[nH]1`, the “% Inhibition” value is on record as 2% and the Z score is recorded as -0.18.
For the compound `CCN1CCCN(C(=O)c2[nH]nc(C3CC3)c2Cl)CC1=O`, the “% Inhibition” value is listed as 6% and the Z score is recorded as -1.11.
For `C[C@@H](NC(=O)NCC1CCOCC1)c1cccc(Cl)c1`, in that order: -6% and 0.92.
In the same order, the values of `Cc1noc(-c2ccncc2)c1C(=O)N1CC=C(c2ccccc2)CC1` are -15% and 2.16.
Turning to `COC(=O)c1ccc2c(c1)CCCN2Cc1cccc2ccccc12`, the “% Inhibition” value was found to be 1% and the Z score was -0.11.
For `O=C(NC1CCN(c2ccc3nncn3n2)C1)OC1CCOC1` (centres undefined), in that order: -14% and 2.2.
Turning to `CCN(CC)[C@@H](Cn1ccnc1-c1nccn1C)c1ccco1`, the “% Inhibition” value is -10% and the Z score stood at 1.43.
For `CCCCOc1ccc(C2=Nc3cc(Br)ccc3NC(c3ccncc3)=N2)cc1`, the “% Inhibition” value worked out at 2% and the Z score is recorded as -0.24.
As for `Cn1nc(CNC(=O)NC2CCCCC2)c2c1CCOC2`, the “% Inhibition” value is -2% and the Z score is 0.47.
Take `O=C(NCCCCn1ccnc1)NCC1(c2ccccc2)CC1`: the “% Inhibition” value is reported as 8% and the Z score was -1.09.
For `Cc1noc(C)c1C[C@H](C)NS(=O)(=O)CCC(F)(F)Cl`, in that order: -9% and 0.89.
Consider `Cc1cnc(C(C)N2CCN(C(C)c3ncc(C)o3)CC(O)C2)o1` (centres undefined), for which the “% Inhibition” value is reported as -10% and the Z score stood at 1.59.
